Experimental data as given in the supplement of paper PMC10300432.
Recombinant human monoclonal antibodies (heavy:light variable regions). ELISA EC50 on the named antigen, from 10 µg/ml down; IC50 against spike pseudovirus on HT1080-ACE2 cells, 48 h; lower = stronger. Calls: IC50 above 1,000 ng/ml = non-neutralizing; EC50 above 1,000 ng/ml = non-binder.

B1: C5111 (protein)
chain 1: QVQLVQSGAEVKKPGASVKVSCKASGYTLTNFGFSWVRQAPGQGLEWMGWISANNGNTDYAEKFQGRVTMTTDTSTSTAYVELKSLRSDDTAVYYCARNLFYYDRGGYYRGESYFDLWGRGTLVTVSS
chain 2: QSVLTQPPSVSGAPGQRVTISCTGSNSNIGAGNDVHWYQQLPGTAPRLLIYGNTNRPSGVPARFSGSKSGTSASLAITGVQAEDEADYYCQSYDSSLSAHVVFGAGTKLTVL
B2: C5112 (protein)
chain 1: QLQLQESGPGLVKPSETLSLTCTVIGGSINSSRYYWAWIRQRPGKGLEWIGNIFYTGTTYYNPSLKSRVTVSVDKSKNQFSLKLSSVTAADTAVYYCARQLGPADFWGQGTLVTVSS
chain 2: DIQMTQSPSSLSASVGDRVTITCRASQGISNSLAWYQHKPGKAPKLLLYSSSILESGVPSRFSGSGSGTDFTLTVSSLQPEDFATYYCQQYYSNPPFTFGQGTKLEIK
B3: C5113 (protein)
chain 1: QVQLVQSGAEVKKPGSSVKISCKASGGTSNTYTVAWVRQAPGQGLEWMGRIIPMFQVPNYAQKFQGRITLTADKSTDTAYMELSSLRFEDTAVYYCATSPGINALDFQDWGQGTLVTVSS
chain 2: DVVMTQSPLSLPVTLGQPASISCRSSQGLVYSDGDTYLTWFQQRPGQSPRRLIYKVSNRDSGVPDRFSGSGSGTDFTLKISRVEAEDVGVYYCMQATHWPPTFGQGTKVEIK
B4: C5114 (protein)
chain 1: QVQLVQSGGGLVQPGGSLRLSCAVSGLGVGHNYMSWVRQAPGKGLEWVSVIYSGGDTYYADSVKGRFTMSRDTSKNAVHLQMSSLRAEDTALYYCARIDFVRTAAYWGQGTLVTVSS
chain 2: DIVMTQTPLSLSVTPGQPASISCKSSQSLLQTNGRTSLYWYLQKPGQSPQLLIYEVSNRFSGVPDRFSGSGSGTDFTLKISRVEAEDTGVYYCMQGIHLPRASGQGTKVEIK
B5: C5116 (protein)
chain 1: QLQLQESGPGLVTPSETLSLTCTVSGASISSSGYYWGWIRQPPGKGPEWIGNIYYSGNTYYKPSLKSRVTISVDTSKNQFFLNLSAVTVADTAIYFCARLRFYFDGSGYSRAFDIWGQGTMVTVSS
chain 2: QSALTQPASVSGSPGQSITISCTGTSSDVGSYNLVSWYQHHPGKAPKLMIYEVTKRPSGVSNRFSGSKSGNTASLTISGLQAEDEADYFCCSYAGSVIFGGGTKLTVL
B6: C5117 (protein)
chain 1: EVQLLESGGGLVQPGGSLRLSCAASAFIFRNYGMGWVRQAPGKGLEWVSGISGSGESTFYADSGKGRFTITRDNSKNTLYLQMKSLRAEDTAVYYCAKALAASGYWAFDFWGQGTMVTVSS
chain 2: DIQMTQSPSSLSASVGDRVTITCQASQDISNYLNWYQQKPGKAPKLLIYDASNLETGVPSRFSGSGSGTDFTFTISSLQPEDIATYYCQQYDNLLITFGQGTRLEIK
B7: C5034 (protein)
chain 1: QVQLVQSGAEVKKPGASVKVSCKASGYTFTGYYIHWVRQAPGQGLEWMGWVNPMSGGTNCTQKFQGRVTMTRDTSITTVYMELSRLNSDDTAVYYCTRDLAFAVVTGGMDVWGQGTTVTVSS
chain 2: QSALTQPPSASGSPGQSVTISCTGTSSDVGGYNYVSWYQQHPGKAPKLMIYEINKRPSGVPDRFSGSKSGNTASLTVSGLQAEDETDYYCSSYAGNNNWVFGGGTKLTVL
B8: C5118 (protein)
chain 1: QVQLVESGGGVVQPGKSLRLSCAASGFSFDNYALHWVRQAPGKGLQWVAVISNGGNNKYYADSVKGRFTISRDNSKNTLFLQLNSLTTEDTALYYCARDLPLPSCSGDCYSGFDYWGQGTLVTVSS
chain 2: SYELTQPPSVSVAPGKTARITCGGTDLGSKNIHWYQQKPGQAPMLVISYDHDRPSGIPDRFSGSNSGNTATLTISRVEVGDEADYYCQVWDTDGGLSEVVFGGGTKLTVL
B9: C5119 (protein)
chain 1: QVQLVQSGAEVKKPGASVKVSCKASGYTFTSYGISWVRQAPGQGLEWMGWISTFNGDTNYAQKFQDRVTMTTDTSTSTVYMDLRSLRSDDTAVYYCARVFAGYCNVGSCYWFDYWGQGTLVTVSS
chain 2: EIVMTQSPATLSVSPGERATLSCRASQSISNNLGWYQQKPGQAPRLLIYGASTRATGIPARFSGSGSGTEFTLTISSLQSEDFAVYYCQQYDNWPPMWTFGQGTKVEIK
B10: C5120 (protein)
chain 1: EVQLLESGGGLVQPGGSLRLSCVASGVPFRSYAMSWVRQAPGKGLEWVSTISGSDGTTYHADSVKGRFTISKDNSKNTVYLQMNSLRAEDTAKYFCAKDLAGGAGGFGFDIWGQGTMVTVSS
chain 2: SYELTQPPSVSVAPGKTARITCGENNIGSKSVYWYQQKPGQAPVLVIYYDSDRPSGIPERLSGSNSGNTATLTISRVEAGDEADYYCQVWDSSSDTYVFGTGTKVTVL
B11: C5121 (protein)
chain 1: QVQLVQSGAEVKKTGSSVKVSCRASGGTVSNYPLNWVRQAPGQGLEWMGRIIPILGIPDYAQKFQGRVTISADRSTNTAYMELNSLRSEDTAIYYCARGYCTEGACVGPRWFDPWGQGTLVTVSS
chain 2: QSVLTQPPSVSGAPGQRVTISCTGSNSNIGAGYDVHWYQQLPGTAPQLLIYRNAIRPSGVPDRFSGSNSGTSASLAINGLQAEDEADYYCQSYDSSLSDVVFGTGTKVTV
B12: C5122 (protein)
chain 1: EVQLVESGGDLVQPGGSLRLSCAVSAFTVSSNYMIWVRQAPGRGLEWVSVIYPGGSTFYADSVKGRFIISRHNSENTLYLQMNDLRLEDTAVYYCARGPYPRSDLWGRGTLVTVSS
chain 2: DIQMTQSPSFLSASVGDRVTITCQASQDSNKYVNWYQHKPGEAPKLLIYDASHLETGVPSRFSGTGSGTHFTFTISGLQPEDIATYYCQQYDNIPITFGGGTKVEI
B13: C5123 (protein)
chain 1: QVQLVQSGAEVKKPGASVKVSCKASGYTFTSYYIHWVRQAPGQGFEWMGIINPSGGSTSYAQKFQGRVSLTGDTSTSTVYMELSSLRSEDTAEYYCARGGIAPDLRREFDHWGQGTLVTVSS
chain 2: DIQMTQSPSTLSASVGDRVTITCRASQSISSWLAWYQQKPGKAPKLLIYKASNLESGVPSRFSGSGSGTEFTLTITSLQPDDFATYYCQQYKSYTFGQGTKLEIK
B14: C5124 (protein)
chain 1: QVQLVESGGGVVQPGRSLSLSCAASGFTFSSYDMHWVRQTPGKGLEWVAAISSDGNIKNYADSVKGRFTISRDNSKSTLYLQMNSLRAEDTAVYYCAKDSQSMIVDLFDYWGQGTLVTVSS
chain 2: DIQMTQSPSSLSASIGDRVTITCRASQSISGYLNWYQQKSGKAPKLLIYATSSLHSGVPPRFSGSASGTDFTLTISSLQPEDFATYYCQQSYTTPLTFGPGTKVD
B15: C5125 (protein)
chain 1: QVQLVESGGGVVQPGRSLRLSCTASGFTFSNYGMHWVRQVPGKGLEWVAAISYDGDDKYYVDSVKGRFNISRDNSKNTLYLLMNSLRVQDTAVYYCVKGGWYGDLLRVDYWGQGTLVIVSS
chain 2: DIQMTQSPSSLSASVGDRVTITCQASQDISHYLNWYQQKPGKAPKLLIYDASSLETGVPSRFSGSGSGTEFTFTISSLQPEDIATYYCQQYGVPPITFGQGTRLEIK

biological target: SARS-CoV-2 Omicron BA.1 spike pseudovirus; experiment: pseudovirus neutralization IC50; higher = weaker neutralization
Method: (§1)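 Single-round luciferase reporter pseudovirus mixed with antibody dilutions and put on HT1080-ACE2 clone 14 cells for 48 h; signal relative to no-antibody wells, four-parameter fit.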

Row | Binder | pseudovirus neutralization IC50 [mg/L]
1 | B1 | > 1
2 | B2 | > 1
3 | B3 | 0.036
4 | B4 | > 1
5 | B5 | > 1
6 | B6 | > 1
7 | B7 | > 1
8 | B8 | 0.176
9 | B9 | 0.108
10 | B10 | 0.711
11 | B11 | 0.0137
12 | B12 | 0.00138
13 | B13 | > 1
14 | B14 | > 1
15 | B15 | > 1

biological target: SARS-CoV-2 Omicron BA.4/5 spike pseudovirus; experiment: as above
Method: as §1

Row | Binder | pseudovirus neutralization IC50 [mg/L]
16 | B1 | > 1
17 | B2 | > 1
18 | B3 | > 1
19 | B4 | > 1
20 | B5 | > 1
21 | B6 | > 1
22 | B7 | > 1
23 | B8 | > 1
24 | B9 | 0.4
25 | B10 | > 1
26 | B11 | 0.218
27 | B12 | 0.00284
28 | B13 | > 1
29 | B14 | > 1
30 | B15 | > 1

biological target: SARS-CoV-2 Wuhan-Hu-1 spike pseudovirus; experiment: as above
Method: as §1

Row | Binder | pseudovirus neutralization IC50 [mg/L]
31 | B1 | 0.74
32 | B2 | 0.00138
33 | B3 | 0.000426
34 | B4 | 0.000552
35 | B5 | > 1
36 | B6 | > 1
37 | B7 | 0.00131
38 | B8 | 0.658
39 | B9 | 0.218
40 | B10 | 0.363
41 | B11 | 0.0274
42 | B12 | 0.00433
43 | B13 | > 1
44 | B14 | > 1
45 | B15 | > 1

biological target: SARS-CoV-2 Wuhan-Hu-1 spike receptor-binding domain; experiment: ELISA binding EC50; higher = weaker binding; ELISA of recombinant human antibody on coated antigen, from 10 µg/ml in fourfold dilutions; four-parameter fit.

Row | Binder | ELISA binding EC50 [mg/L]
46 | B1 | 0.00712
47 | B2 | 0.00237
48 | B3 | 0.00223
49 | B4 | 0.00239
50 | B5 | 0.0133
51 | B6 | 0.00509
52 | B7 | 0.00393
53 | B8 | 0.00273
54 | B9 | 0.00527
55 | B10 | 0.00314
56 | B11 | 0.00517
57 | B12 | 0.0031
58 | B13 | 0.0105
59 | B14 | 0.00395
60 | B15 | 0.00432
